Source: patent US9382245B2, “Compounds and methods for treating HIV infections” (priority 2013, dated 2016)
Like-named read-outs stand apart in the source and are kept apart here.

What was measured:
Test in all cases: microbe, parasite or virus in culture
Type in all cases: cell-based
[1] = test system: IIIB strain of HIV-1 (wild-type)
[2] = test system: HIV-1 variant strain with Y181C mutation in RT
[3] = test system: HIV-1 variant strain with K103N/Y181C mutations in RT
[4] = Human immunodeficiency virus 1, IIIB, MT2, Table 1, 50% protection in MT-2 cells, NA = EC50 > CC50, read-out: WT EC50
[5] = Human immunodeficiency virus 1, MT2, Table 1, 50% protection in MT-2 cells, NA = EC50 > CC50, read-out: Y181C EC50
[6] = Human immunodeficiency virus 1, MT2, Table 4, 50% protection in MT-2 cells, NA = EC50 > CC50, read-out: Y181C EC50
[7] = Human immunodeficiency virus 1, MT2, read-out: 103N181C EC50, Table 1, 50% protection in MT-2 cells, NA = EC50 > CC50
[8] = Human immunodeficiency virus 1, MT2, read-out: EC50 towards K103N/Y181C variant, MT-2 cell assay
[9] = Human immunodeficiency virus 1, MT2, read-out: K103N/Y181C EC50, Table 4, 50% protection in MT-2 cells, NA = EC50 > CC50
[10] = Human immunodeficiency virus 1, IIIB, MT2, Table 4, 50% protection in MT-2 cells, NA = EC50 > CC50, read-out: WT EC50
[11] = Human immunodeficiency virus 1, IIIB, MT2, text, MT-2 cell assay, read-out: EC50 towards wild-type HIV-1

Row | SMILES | EC50 [1, 4] [nM] | EC50 [2, 6] [nM] | EC50 [3, 7] [nM] | EC50 [3, 9] [nM] | EC50 [1, 10] [nM] | also measured
1 | O=c1ccn(CCOc2cc(Cl)ccc2Oc2cccc3ccoc23)c(=O)[nH]1 [13a, 1-(2-(2-(benzofuran-7-yloxy)-5-chlorophenoxy)ethyl)pyrimidine-2,4(1H,3H)-dione] | 900 |  |  |  |  | 
2 | N#Cc1cc2c(Oc3ccccc3OCCn3ccc(=O)[nH]c3=O)cccn2c1 [10b, 8-(2-(2-(2,4-dioxo-3,4-dihydropyrimidin-1(2H)-yl)ethoxy)phenoxy)indolizine-2-carbonitrile] | 0.38 | 310 | 11 | 11 | 0.38 | EC50 [2, 5]: 310 nM; EC50 [3, 8]: 11 nM; EC50 ([3]; read-out: EC50 towards K103N/Y181C variant, MT-2 cell assay): ~10 nM; EC50 [1, 11]: 0.38 nM
3 | N#Cc1cc2c(Oc3cc(F)c(F)cc3OCCn3ccc(=O)[nH]c3=O)cc(F)cn2c1 [10l, 8-(2-(2-(2,4-dioxo-3,4-dihydropyrimidin-1(2H)-yl)ethoxy)-4,5-difluorophenoxy)-6-fluoroindolizine-2-carbonitrile] | 6.8 |  | 230 |  |  | EC50 [2, 5]: 1200 nM
4 | Cc1ccc2c(Oc3ccccc3OCCn3ccc(=O)[nH]c3=O)cccc2c1 [14b, 1-(2-(2-((6-methylnaphthalen-1-yl)oxy)phenoxy)ethyl)pyrimidine-2,4(1H,3H)-dione] |  | 12000 |  | 15000 | 250 | 
5 | N#Cc1cc2c(Oc3ccccc3OCCn3ccc(=O)[nH]c3=O)cc(Cl)cc2o1 [12c, 6-chloro-4-(2-(2-(2,4-dioxo-3,4-dihydropyrimidin-1(2H)-yl)ethoxy)phenoxy)benzofuran-2-carbonitrile] | 19 | 1900 | 260 | 260 | 19 | EC50 [2, 5]: 1900 nM
6 | O=c1ccn(CCOc2ccccc2Oc2cccc3[nH]ccc23)c(=O)[nH]1 [8a, 1-(2-(2-((1H-indol-4-yl)oxy)phenoxy)ethyl)pyrimidine-2,4(1H,3H)-dione] | 85 |  |  |  |  | EC50 [1, 11]: 85 nM
7 | Cc1cc2cccc(Oc3ccccc3OCCn3ccc(=O)[nH]c3=O)c2[nH]1 [9b, 1-(2-(2-((2-methyl-1H-indol-7-yl)oxy)phenoxy)ethyl)pyrimidine-2,4(1H,3H)-dione] |  |  |  |  |  | activity towards the wild-type virus, in words ([1]; MT-2 cell assay): inactive
8 | N#C/C=C/c1cc(Cl)cc(Oc2ccccc2OCCn2ccc(=O)[nH]c2=O)c1 [1c, (E)-3-(3-chloro-5-(2-(2-(2,4-dioxo-3,4-dihydropyrimidin-1(2H)-yl)ethoxy)phenoxy)phenyl)acrylonitrile] |  | 46 |  | 24 | 0.31 | EC50 [1, 11]: 0.32 nM
9 | N#Cc1ccc2c(Oc3ccc(F)cc3OCCn3ccc(=O)[nH]c3=O)cc(Cl)cc2c1 [14g, 7-chloro-5-(2-(2-(2,4-dioxo-3,4-dihydropyrimidin-1(2H)-yl)ethoxy)-4-fluorophenoxy)-2-naphthonitrile] |  | 5.3 |  | 46 | 4.5 | 
10 | N#Cc1ccc2c(Oc3ccc(Cl)cc3OCCn3ccc(=O)[nH]c3=O)cccc2c1 [14j, 5-(4-chloro-2-(2-(2,4-dioxo-3,4-dihydropyrimidin-1(2H)-yl)ethoxy)phenoxy)-2-naphthonitrile] |  | 48 |  | 290 | 1.5 | 
11 | O=c1ccn(CCOc2ccccc2Oc2cccc3cc(Cl)ccc23)c(=O)[nH]1 [14c, 1-(2-(2-((6-chloronaphthalen-1-yl)oxy)phenoxy)ethyl)pyrimidine-2,4(1H,3H)-dione] |  | 1000 |  | 710 | 14 | 
12 | O=c1ccn(CCOc2ccccc2Oc2cc(Cl)cc3cc(Cl)ccc23)c(=O)[nH]1 [14d, 1-(2-(2-((3,6-dichloronaphthalen-1-yl)oxy)phenoxy)ethyl)pyrimidine-2,4(1H,3H)-dione] |  | 430 |  | 520 | 38 | 
13 | Cc1cc2c(Oc3ccccc3OCCn3ccc(=O)[nH]c3=O)cccn2c1 [10a, 1-(2-(2-((2-methylindolizin-8-yl)oxy)phenoxy)ethyl)pyrimidine-2,4(1H,3H)-dione] | 50 |  |  |  |  | 
14 | Cc1cc2c(Oc3ccc(Cl)cc3OCCn3ccc(=O)[nH]c3=O)cccc2o1 [12g, 1-(2-(5-chloro-2-((2-methylbenzofuran-4-yl)oxy)phenoxy)ethyl)pyrimidine-2,4(1H,3H)-dione] | 25 |  |  |  |  | 
15 | N#Cc1cc2c(Oc3ccc(Cl)cc3OCCn3ccc(=O)[nH]c3=O)cc(Cl)cn2c1 [10n, 6-chloro-8-(4-chloro-2-(2-(2,4-dioxo-3,4-dihydropyrimidin-1(2H)-yl)ethoxy)phenoxy)indolizine-2-carbonitrile] | 22 |  | 530 |  |  | EC50 [2, 5]: 410 nM
16 | Cc1cc(Oc2ccccc2OCCn2ccc(=O)[nH]c2=O)c2cc(C#N)oc2c1 [12b, 4-(2-(2-(2,4-dioxo-3,4-dihydropyrimidin-1(2H)-yl)ethoxy)phenoxy)-6-methylbenzofuran-2-carbonitrile] | 210 |  | 1300 |  |  | EC50 [1, 11]: 210 nM
17 | Cc1cc(Oc2ccccc2OCCn2ccc(=O)[nH]c2=O)c2cc(C#N)[nH]c2c1 [8e, 4-(2-(2-(2,4-dioxo-3,4-dihydropyrimidin-1(2H)-yl)ethoxy)phenoxy)-6-methyl-1H-indole-2-carbonitrile] | 10 |  | 800 | 800 | 10 | EC50 [1, 11]: 10 nM
18 | N#Cc1cc2c(Oc3ccccc3OCCn3ccc(=O)[nH]c3=O)cccc2o1 [12a, 4-(2-(2-(2,4-dioxo-3,4-dihydropyrimidin-1(2H)-yl)ethoxy)phenoxy)benzofuran-2-carbonitrile] | 18 |  | 420 | 420 | 18 | EC50 [1, 11]: 18 nM; EC50 ([1]; MT-2 cell assay, listed as 9c, read-out: EC50 towards wild-type HIV-1): 19 nM
19 | N#Cc1cc2c(Oc3cc(F)ccc3OCCn3ccc(=O)[nH]c3=O)cccn2c1 [10j, 8-(2-(2-(2,4-dioxo-3,4-dihydropyrimidin-1(2H)-yl)ethoxy)-5-fluorophenoxy)indolizine-2-carbonitrile] | 2 |  | 220 |  |  | EC50 [2, 5]: 9000 nM
20 | O=c1ccn(CCOc2cc(Cl)ccc2Oc2cccc3[nH]ccc23)c(=O)[nH]1 [8b, 1-(2-(2-((1H-indol-4-yl)oxy)-5-chlorophenoxy)ethyl)pyrimidine-2,4(1H,3H)-dione] | 1600 |  |  |  |  | 
21 | N#Cc1ccc2c(Oc3ccccc3OCCn3ccc(=O)[nH]c3=O)cc(Cl)cc2c1 [14f, 7-chloro-5-(2-(2-(2,4-dioxo-3,4-dihydropyrimidin-1(2H)-yl)ethoxy)phenoxy)-2-naphthonitrile] |  | 13 |  | 7.5 | 2.2 | EC50 ([2]; Human immunodeficiency virus 1, MT2, text, MT-2 cell assay): < 20 nM; EC50 [3, 8]: < 20 nM
22 | Cc1cc2c(Oc3ccccc3OCCn3ccc(=O)[nH]c3=O)cccc2[nH]1 [8c, 1-(2-(2-((2-methyl-1H-indol-4-yl)oxy)phenoxy)ethyl)pyrimidine-2,4(1H,3H)-dione] | 390 |  |  |  |  | 
23 | N#Cc1cc2c(Oc3cc(F)c(F)cc3OCCn3ccc(=O)[nH]c3=O)cccn2c1 [10k, 8-(2-(2-(2,4-dioxo-3,4-dihydropyrimidin-1(2H)-yl)ethoxy)-4,5-difluorophenoxy)indolizine-2-carbonitrile] | 3.2 |  | 500 |  |  | EC50 [2, 5]: 1200 nM
24 | Cc1cc(Oc2ccc(F)cc2OCCn2ccc(=O)[nH]c2=O)c2cc(C#N)oc2c1 [12e, 4-(2-(2-(2,4-dioxo-3,4-dihydropyrimidin-1(2H)-yl)ethoxy)-4-fluorophenoxy)-6-methylbenzofuran-2-carbonitrile] | 260 |  | 5000 |  |  | 
25 | N#Cc1ccc2c(Oc3ccc(F)cc3OCCn3ccc(=O)[nH]c3=O)cc(F)cc2c1 [14l, 5-(2-(2-(2,4-dioxo-3,4-dihydropyrimidin-1(2H)-yl)ethoxy)-4-fluorophenoxy)-7-fluoro-2-naphthonitrile] |  | 5.6 |  | 21 | 1.9 | EC50 ([2]; Human immunodeficiency virus 1, MT2, Table 3, 50% protection in MT-2 cells, NA = EC50 > CC50, read-out: Y181C EC50): 5.6 nM; EC50 ([3]; Human immunodeficiency virus 1, MT2, read-out: 103N181C EC50, Table 3, 50% protection in MT-2 cells, NA = EC50 > CC50): 21 nM; EC50 [3, 8]: ~10 nM; EC50 ([1]; Human immunodeficiency virus 1, IIIB, MT2, Table 3, 50% protection in MT-2 cells, NA = EC50 > CC50, read-out: WT EC50): 1.9 nM; EC50 [1, 11]: 0.4 to 0.5 nM
26 | N#Cc1cc2c(Oc3ccccc3OCCn3ccc(=O)[nH]c3=O)cc(Cl)cc2[nH]1 [8f, 6-chloro-4-(2-(2-(2,4-dioxo-3,4-dihydropyrimidin-1(2H)-yl)ethoxy)phenoxy)-1H-indole-2-carbonitrile] | 340 | 27000 | 2700 | 2700 | 340 | EC50 [2, 5]: 27000 nM; EC50 [1, 11]: 340 nM
27 | Cc1cc(Oc2ccccc2OCCn2ccc(=O)[nH]c2=O)c2[nH]ccc2c1 [9a, 1-(2-(2-((5-methyl-1H-indol-7-yl)oxy)phenoxy)ethyl)pyrimidine-2,4(1H,3H)-dione] | 6000 |  |  |  |  | 
28 | N#Cc1cc2c(Oc3ccc(Cl)cc3OCCn3ccc(=O)[nH]c3=O)cccc2o1 [12h, 4-(4-chloro-2-(2-(2,4-dioxo-3,4-dihydropyrimidin-1(2H)-yl)ethoxy)phenoxy)benzofuran-2-carbonitrile] | 7 |  |  |  | 7 | 
29 | O=c1ccn(CCOc2cc(Cl)ccc2Oc2cccc3occc23)c(=O)[nH]1 [12f, 1-(2-(2-(benzofuran-4-yloxy)-5-chlorophenoxy)ethyl)pyrimidine-2,4(1H,3H)-dione] | 800 |  |  |  |  | 
